For at least one compound, name, drawing or mass did not settle the structure. Starred links: 1 amine or outer side, 2 acyl side, 3 side chain; linkers in the order of their positions; H or OH if unused. Positions of bridges follow the written chain, without caps; N, C: chain ends. Groups on a side chain read outwards from the residue. Chains are numbered I, II in the order given. No end group written: not given here. *: point of attachment. Phe(Nα-CONH2) = NC(=O)N[C@@H](Cc1ccccc1)C(=O)*; C20 diacid = O=C(O)CCCCCCCCCCCCCCCCCCC(=O)*; C18 diacid = O=C(O)CCCCCCCCCCCCCCCCC(=O)*; C16 diacid = O=C(O)CCCCCCCCCCCCCCC(=O)*; NMe2Phe = CN(C)[C@@H](Cc1ccccc1)C(=O)*; γGlu = O=C(O)[C@H](CCC(=O)[*:2])N[*:1]; Hydantoyl = NC(=O)NCC(=O)*; AEEA = NCCOCCOCC(=O)O; Me2Gly = CN(C)CC(=O)*
Assays:
[1] = Hydrophobicity by isocratic reverse phase HPLC (k'rel); format: physicochemical; conditions: human insulin = 1, RP-HPLC pH 7.3
Procedure: The elution time of the insulin derivative is compared to that of human insulin (herein designated HI) or another derivative with a known hydrophibicity under the same conditions. The hydrophobicity, k′rel, is calculated as: k′relderiv=((tderiv−t0)/(tref−t0))*k′relref. Using HI as reference: k′relref=k′relHI=1. The void time of the HPLC system, t0, is determined by injecting 5 μl of 0.1 mM NaNO3. Running conditions:
Column: Lichrosorb RP-C18, 5 μm, 4×250 mm
Buffer A: 0.1 M natrium phosphate pH 7.3, 10 vol % CH3CN
After running an initial gradient, the isocratic level for running the derivative and reference (for example HI) is chosen, and the elution times of the derivative and reference under isocratic conditions are used in the above equation to calculate k′relderiv.

[2] = tested on: primary rat adipocytes; assay: Lipogenesis in rat adipocytes; format: cell-based; conditions: relative potency vs human insulin, unit %
Procedure: As a measure of in vitro potency of the insulins of the invention, lipogenesis can be used.
Primary rat adipocytes are isolated from the epididymale fat pads and incubated with 3H-glucose in buffer containing e.g. 0.1% fat free HSA and either standard (human insulin, HI) or insulin of the invention. The labelled glucose is converted into extractable lipids in a dose dependent way, resulting in full dose response curves.

[3] = biological target: T1, human insulin receptor (IR-A) (Homo sapiens, UniProt P06213); conditions: relative to affinity of human insulin; […] HSA in binding buffer
T1 sequence (P06213 28-746 isoform P06213-2 limits assumed): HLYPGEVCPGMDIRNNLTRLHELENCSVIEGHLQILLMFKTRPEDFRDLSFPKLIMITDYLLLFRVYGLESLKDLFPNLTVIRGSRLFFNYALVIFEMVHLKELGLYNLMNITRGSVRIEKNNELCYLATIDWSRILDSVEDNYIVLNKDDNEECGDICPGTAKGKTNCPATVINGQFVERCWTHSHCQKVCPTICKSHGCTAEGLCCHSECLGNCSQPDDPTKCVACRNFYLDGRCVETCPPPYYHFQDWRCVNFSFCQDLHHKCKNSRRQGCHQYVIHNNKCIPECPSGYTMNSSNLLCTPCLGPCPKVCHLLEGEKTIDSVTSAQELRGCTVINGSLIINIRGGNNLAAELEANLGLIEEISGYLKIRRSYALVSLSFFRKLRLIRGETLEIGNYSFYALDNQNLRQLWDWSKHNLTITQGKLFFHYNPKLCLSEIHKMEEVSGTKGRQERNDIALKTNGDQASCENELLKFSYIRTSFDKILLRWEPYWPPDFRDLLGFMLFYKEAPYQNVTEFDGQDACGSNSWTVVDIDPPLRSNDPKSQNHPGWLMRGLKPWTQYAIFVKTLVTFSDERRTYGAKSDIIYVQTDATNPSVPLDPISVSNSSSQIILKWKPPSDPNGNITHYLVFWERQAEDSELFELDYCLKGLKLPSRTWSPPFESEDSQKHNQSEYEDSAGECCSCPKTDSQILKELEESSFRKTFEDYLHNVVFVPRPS
T1 sequence (P06213 763-1382 partner limits assumed): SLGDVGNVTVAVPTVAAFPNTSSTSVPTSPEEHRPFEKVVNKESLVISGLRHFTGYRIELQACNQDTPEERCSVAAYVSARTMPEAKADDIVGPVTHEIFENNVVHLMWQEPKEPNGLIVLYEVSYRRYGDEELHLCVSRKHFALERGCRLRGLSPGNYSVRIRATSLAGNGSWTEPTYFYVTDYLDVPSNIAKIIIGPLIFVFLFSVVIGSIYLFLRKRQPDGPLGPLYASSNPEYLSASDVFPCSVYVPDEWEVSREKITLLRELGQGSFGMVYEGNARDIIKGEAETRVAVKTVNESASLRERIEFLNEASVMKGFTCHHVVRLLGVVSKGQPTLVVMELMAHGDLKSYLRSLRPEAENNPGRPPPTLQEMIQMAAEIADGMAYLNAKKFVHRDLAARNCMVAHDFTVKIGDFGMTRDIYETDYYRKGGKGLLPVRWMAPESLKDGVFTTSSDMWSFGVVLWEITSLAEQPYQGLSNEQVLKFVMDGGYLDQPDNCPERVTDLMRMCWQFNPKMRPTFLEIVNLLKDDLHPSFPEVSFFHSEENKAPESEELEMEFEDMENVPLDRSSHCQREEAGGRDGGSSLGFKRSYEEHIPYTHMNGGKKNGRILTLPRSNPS
Procedure: The affinity of the acylated insulin analogues of this invention for the human insulin receptor is determined by a SPA assay (Scintillation Proximity Assay) microtiterplate antibody capture assay. SPA-PVT antibody-binding beads, anti-mouse reagent (Amersham Biosciences, Cat No. PRNQ0017) are mixed with 25 ml of binding buffer (100 mM HEPES pH 7.8; 100 mM sodium chloride, 10 mM MgSO4, 0.025% Tween-20). Reagent mix for a single Packard Optiplate (Packard No. 6005190) is composed of 2.4 μl of a 1:5000 diluted purified recombinant human insulin receptor (either with or without exon 11), an amount of a stock solution of A14Tyr[^125I]-human insulin corresponding to 5000 cpm per 100 μl of reagent mix, 12 μl of a 1:1000 dilution of F12 antibody, 3 ml of SPA-beads and binding buffer to a total of 12 ml. A total of 100 μl reagent mix is then added to each well in the Packard Optiplate and a dilution series of the insulin derivative is made in the Optiplate from appropriate samples. The samples are then incubated for 16 hours while gently shaken. The phases are the then separated by centrifugation for 1 min and the plates counted in a Topcounter. The binding data were fitted using the nonlinear regression algorithm in the GraphPad Prism 2.01 (GraphPad Software, San Diego, Calif.) and affinities are expressed relative (in percentage (%)) to the affinity of human insulin. […]

[4] = biological target: T1, human insulin receptor (IR-A); assay: Insulin receptor affinity, SPA antibody capture assay, 0% HSA; format: binding; conditions: relative to affinity of human insulin
Procedure: The affinity of the acylated insulin analogues of this invention for the human insulin receptor is determined by a SPA assay (Scintillation Proximity Assay) microtiterplate antibody capture assay. SPA-PVT antibody-binding beads, anti-mouse reagent (Amersham Biosciences, Cat No. PRNQ0017) are mixed with 25 ml of binding buffer (100 mM HEPES pH 7.8; 100 mM sodium chloride, 10 mM MgSO4, 0.025% Tween-20). Reagent mix for a single Packard Optiplate (Packard No. 6005190) is composed of 2.4 μl of a 1:5000 diluted purified recombinant human insulin receptor (either with or without exon 11), an amount of a stock solution of A14Tyr[^125I]-human insulin corresponding to 5000 cpm per 100 μl of reagent mix, 12 μl of a 1:1000 dilution of F12 antibody, 3 ml of SPA-beads and binding buffer to a total of 12 ml. A total of 100 μl reagent mix is then added to each well in the Packard Optiplate and a dilution series of the insulin derivative is made in the Optiplate from appropriate samples. The samples are then incubated for 16 hours while gently shaken. The phases are the then separated by centrifugation for 1 min and the plates counted in a Topcounter. The binding data were fitted using the nonlinear regression algorithm in the GraphPad Prism 2.01 (GraphPad Software, San Diego, Calif.) and affinities are expressed relative (in percentage (%)) to the affinity of human insulin.

Substance	Hydrophobicity rel. to human insulin [1]	Lipogenesis in rat adipocytres (@ 0.1% HSA) rel. to human insulin [2]	Relative IR-A affinity (@ […] HSA) (%)e [3]	Relative IR-A affinity (@ 0% HSA) (%) [4]
I: {Phe(Nα-CONH2)}-VNQHLCGSHLVEALYLVCGERGFFYPK([γGlu-C16 diacid]) / II: Hydantoyl-IVEQCCTSICSLEQLENYCN (disulfide I:6-II:6, I:18-II:19, II:5-II:10) [Example 19, A1G(N(alpha)carbamoyl), A14E, B1F(N(alpha)carbamoyl), desB27, B29K(N(eps)hexadecanedioyl-gGlu), desB30 human insulin]	0.08	–	–	–
I: NMe2Phe-VNQHLCGSHLVEALYLVCGERGFHYPK([γGlu-C18 diacid]) / II: Me2Gly-IVEQCCTSICSLEQLENYCN (disulfide I:6-II:6, I:18-II:19, II:5-II:10) [Example 4, A1(N^α, N^α-Dimethyl), A14E, B1(N^α, N^α-dimethyl), B25H, desB27, B29K(N^εoctadecanedioyl-gGlu), desB30 human insulin]	0.27	0.12%	–	–
I: {Phe(Nα-CONH2)}-VNQHLCGSHLVEALYLVCGERGFFYPK([γGlu-C18 diacid]) / II: Hydantoyl-IVEQCCTSICSLEQLENYCN (disulfide I:6-II:6, I:18-II:19, II:5-II:10) [Example 23, A1(N^αCarbamoyl), A14E, B1(N^αCarbamoyl), desB27, B29K(N^εoctadecanedioyl-gGlu), desB30 human insulin]	0.19	–	–	–
I: {Phe(Nα-CONH2)}-VNQHLCGSHLVEALYLVCGERGFFYPK([AEEA-AEEA-γGlu-C20 diacid]) / II: Hydantoyl-IVEQCCTSICSLEQLENYCN (disulfide I:6-II:6, I:18-II:19, II:5-II:10) [Example 29, A1G(N^αcarbamoyl), A14E, B1F(N^αcarbamoyl), desB27, B29K(N^εeicosanedioyl-gGlu-2xOEG), desB30 human insulin]	0.71	–	–	–
I: {Phe(Nα-CONH2)}-VNQHLCGSHLVEALYLVCGERGFFYPK([γGlu-C20 diacid]) / II: Hydantoyl-IVEQCCTSICSLEQLENYCN (disulfide I:6-II:6, I:18-II:19, II:5-II:10) [Example 21]	0.65	–	–	–
I: {Phe(Nα-CONH2)}-VNQHLCGSHLVEALYLVCGERGFHYTPK([γGlu-C16 diacid]) / II: Hydantoyl-IVEQCCTSICSLEQLENYCN (disulfide I:6-II:6, I:18-II:19, II:5-II:10) [Example 13, A1(N^αCarbamoyl), A14E, B1(N^αCarbamoyl), B25H, B29K(N^εhexadecanedioyl-gGlu), desB30 human insulin]	0.04	–	–	–
I: {Phe(Nα-CONH2)}-VNQHLCGSHLVEALYLVCGERGFHYPK([AEEA-AEEA-γGlu-C20 diacid]) / II: Hydantoyl-IVEQCCTSICSLEQLENYCN (disulfide I:6-II:6, I:18-II:19, II:5-II:10) [Example 28, A1G(N^αcarbamoyl), A14E, B1F(N^αcarbamoyl), B25H, desB27, B29K(N^εeicosanedioyl-gGlu-2xOEG), desB30 human insulin]	0.41	–	–	–
I: NMe2Phe-VNQHLCGSHLVEALHLVCGERGFHYTPK([γGlu-C16 diacid]) / II: Me2Gly-IVEQCCTSICSLEQLENYCN (disulfide I:6-II:6, I:18-II:19, II:5-II:10) [Example 3, A1(N^α,N^α-Dimethyl), A14E, B1(N^α, N^α-dimethyl), B16H, B25H, B29K(N^εhexadecanedioyl-gGlu), desB30 human insulin]	0.08	–	–	–
I: {Phe(Nα-CONH2)}-VNQHLCGSHLVEALYLVCGERGFHYPK([AEEA-AEEA-γGlu-C18 diacid]) / II: Hydantoyl-IVEQCCTSICSLEQLENYCN (disulfide I:6-II:6, I:18-II:19, II:5-II:10) [Example 18, A1(N^αCarbamoyl), A14E, B1(N^αCarbamoyl), B25H, desB27, B29K(N^εoctadecandioyl-gGlu-2xOEG), desB30 human insulin]	0.12	0.04%	–	–
I: NMe2Phe-VNQHLCGSHLVEALYLVCGERGFHYPK([γGlu-C16 diacid]) / II: Me2Gly-IVEQCCTSICSLEQLENYCN (disulfide I:6-II:6, I:18-II:19, II:5-II:10) [Example 8, A1G(N^α,N^α-Dimethyl), A14E, B1F(N^α,N^α-dimethyl), B25H, desB27, B29K(N^εhexadecanedioyl-gGlu), desB30 human insulin]	0.09	1.23%	–	–
I: {Phe(Nα-CONH2)}-VNQHLCGSHLVEALHLVCGERGFFYPK([AEEA-AEEA-γGlu-C20 diacid]) / II: Hydantoyl-IVEQCCTSICSLEQLENYCN (disulfide I:6-II:6, I:18-II:19, II:5-II:10) [Example 30, A1G(N^αcarbamoyl), A14E, B1F(N^αcarbamoyl), B16H, desB27, B29K(N^εeicosanedioyl-gGlu-2xOEG), desB30 human insulin]	0.64	–	0.18%	0.7%
I: NMe2Phe-VNQHLCGSHLVEALYLVCGERGFHYPK([AEEA-AEEA-γGlu-C18 diacid]) / II: Me2Gly-IVEQCCTSICSLEQLENYCN (disulfide I:6-II:6, I:18-II:19, II:5-II:10) [Example 5, A1(N^α, N^α-Dimethyl), A14E, B1(N^α,N^α-dimethyl), B25H, desB27, B29K(N^εoctadecanedioyl-gGlu-2xOEG), desB30 human insulin]	0.30	0.13%	–	–
I: {Phe(Nα-CONH2)}-VNQHLCGSHLVEALYLVCGERGFFYPK([AEEA-AEEA-γGlu-C16 diacid]) / II: Hydantoyl-IVEQCCTSICSLEQLENYCN (disulfide I:6-II:6, I:18-II:19, II:5-II:10) [Example 20]	0.08	–	–	–
